Structures can show the parent of a compound that is named as a salt. Some of the results follow. Cut-off read from the data, not from the text of the source: active = 0.5 or less and inactive = the rest. Single values are uncertain, as repeats are few or missing.

What all share (conditions): 50 µM; 24 h
Experiment [1] concerns HeLa VPS33A reporter cells. The experiment can be described thus: relative cell viability (CellMask signal) vs DMSO (fraction of DMSO); higher = less cytotoxic.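 Note: primary screen of an FDA-approved drug library in HeLa reporter cells in 96-well format, CellMask signal normalized to DMSO-treated wells set as 1, under 0.5 deemed highly cytotoxic.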
Experiment [2] deals with HeLa VPS33A R498W KI + HA-SDC1-FLAG. The experiment in a line: relative GAG core protein HA-SDC1 amount per cell number vs DMSO (fraction of DMSO); higher = more SDC1 (GAG core protein).
Experiment [3] has as its system HeLa VPS33A KO + NLuc-VPS33A R498W. The experiment in a line: relative mutant VPS33A R498W amount (NanoLuc luminescence) vs DMSO (fraction of DMSO); HeLa model of a glycosaminoglycan (GAG) storage disease; KI is knock-in and KO knock-out; SDC1 is syndecan 1; higher = higher mutant VPS33A level.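 Note: screen of an FDA-approved drug library, NanoLuc luminescence read after lysing the treated cells, taken as a measure of mutant VPS33A protein stability.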
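Throughout, for relative GAG core protein HA-SDC1 amount per cell number vs DMSO: HA-SDC1 level read out by In-Cell Western staining with an anti-HA antibody against the N-terminal tag, screening FDA-approved library drugs.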

In experiment [1], `C[C@H]1[C@H](C)CC[C@]2(C(=O)O[C@@H]3O[C@H](CO[C@@H]4O[C@H](CO)[C@@H](O[C@@H]5O[C@@H](C)[C@H](O)[C@@H](O)[C@H]5O)[C@H](O)[C@H]4O)[C@@H](O)[C@H](O)[C@H]3O)CC[C@]3(C)C(=CC[C@@H]4[C@@]5(C)C[C@@H](O)[C@H](O)[C@@](C)(CO)[C@@H]5[C@H](O)C[C@]43C)[C@H]12` [Madecassoside] returned a relative cell viability of 1.09. Further, the “relative GAG core protein HA-SDC1 amount per cell number” value in experiment [2] is inactive: 0.898. Besides, the “relative mutant VPS33A R498W amount” value in experiment [3] was 1.33.
`CC(=O)Nc1cccc(-n2c(=O)n(C3CC3)c(=O)c3c(Nc4ccc(I)cc4F)n(C)c(=O)c(C)c32)c1` [Trametinib DMSO solvate]: in experiment [1], the relative cell viability is 1.18. Moreover, in experiment [2], the “relative GAG core protein HA-SDC1 amount per cell number” value was inactive: 1.24. The “relative mutant VPS33A R498W amount” value in experiment [3] came to 1.3.
`OC[C@@H](O)[C@H](O)[C@@H](O)CO` [Xylitol]: in experiment [1], the relative cell viability stood at 1.09. The “relative GAG core protein HA-SDC1 amount per cell number” value in experiment [2] was inactive: 0.965. In addition, the “relative mutant VPS33A R498W amount” value in experiment [3] amounted to 1.37.
On to `CC(C)[C@H](N)C(=O)OCCOCn1cnc2c(=O)nc(N)[nH]c21` [Valaciclovir HCl], for which the relative cell viability in experiment [1] worked out at 0.992. For the same molecule, in experiment [2], the “relative GAG core protein HA-SDC1 amount per cell number” value is inactive: 0.82. In experiment [3], the “relative mutant VPS33A R498W amount” value turned out to be 1.35.
Take `CC(C)OC(=O)[C@H](C)N[P@](=O)(OC[C@H]1O[C@@H](n2ccc(=O)[nH]c2=O)[C@](C)(F)[C@@H]1O)Oc1ccccc1`: the relative cell viability in experiment [1] was 1.1. In experiment [2], the “relative GAG core protein HA-SDC1 amount per cell number” value is inactive: 1.62. In addition, in experiment [3], the “relative mutant VPS33A R498W amount” value was 1.37.
For `CCOc1ccc(NC(C)=O)cc1` [Phenacetin], in that order: 1.24, inactive: 0.78 and 1.17.
In experiment [1], `CC(=O)Oc1cc2c(s1)CCN(C(C(=O)C1CC1)c1ccccc1F)C2` (stereo not drawn) [Prasugrel] showed a relative cell viability of 0.956. Moreover, the “relative GAG core protein HA-SDC1 amount per cell number” value in experiment [2] is inactive: 0.562. Moreover, the “relative mutant VPS33A R498W amount” value in experiment [3] was 0.562.
In experiment [1], `COc1cc(NS(=O)(=O)c2ccc(N)cc2)nc(OC)n1` [Sulfadimethoxine] came in with a relative cell viability of 0.975. Also, in experiment [2], the “relative GAG core protein HA-SDC1 amount per cell number” value is inactive: 0.807. In experiment [3], the “relative mutant VPS33A R498W amount” value is 1.4.
In experiment [1], `S=C(NCc1ccc2c(c1)OCO2)N1CCN(c2ncnc3c2oc2ccccc23)CC1` [Amuvatinib (MP-470, HPK 56)] returned a relative cell viability of 1.05. Also, the “relative GAG core protein HA-SDC1 amount per cell number” value in experiment [2] was inactive: 1.46. Further, in experiment [3], the “relative mutant VPS33A R498W amount” value was 0.628.
In the case of `COc1ccc([C@H]2CNC(=O)C2)cc1OC1CCCC1` [S- (+)-Rolipram], the relative cell viability in experiment [1] amounted to 0.976. For the same molecule, the “relative GAG core protein HA-SDC1 amount per cell number” value in experiment [2] is inactive: 0.916. Also, the “relative mutant VPS33A R498W amount” value in experiment [3] was found to be 0.93.
As to `O=c1[nH]cnc2c1ncn2[C@@H]1O[C@H](CO)[C@@H](O)[C@H]1O` [Inosine], the relative cell viability in experiment [1] was 1.05. In addition, the “relative GAG core protein HA-SDC1 amount per cell number” value in experiment [2] is inactive: 0.848. For the same molecule, the “relative mutant VPS33A R498W amount” value in experiment [3] was 1.53.
Taken in the same sequence, the figures for `CCOc1ccc2ccccc2c1C(=O)N[C@@H]1C(=O)N2[C@@H]1SC(C)(C)[C@@H]2C(=O)O` [Nafcillin Sodium] were 0.97, inactive: 1.01 and 1.44.
`Nc1nc(N)c2nc(-c3ccccc3)c(N)nc2n1` [Triamterene] had a relative cell viability in experiment [1] of 1.01. Further, the “relative GAG core protein HA-SDC1 amount per cell number” value in experiment [2] is inactive: 0.955. In experiment [3], the “relative mutant VPS33A R498W amount” value amounted to 1.48.
Take `CC(=O)[C@@]1(O)CC[C@H]2[C@@H]3C[C@H](C)C4=CC(=O)CC[C@]4(C)[C@H]3CC[C@@]21C` [Medroxyprogesterone]: the relative cell viability in experiment [1] worked out at 1.02. For the same molecule, the “relative GAG core protein HA-SDC1 amount per cell number” value in experiment [2] was inactive: 0.992. Besides, the “relative mutant VPS33A R498W amount” value in experiment [3] amounted to 1.44.
The molecule `CC(O)(P(=O)(O)O)P(=O)(O)O` [Etidronate] yielded a relative cell viability in experiment [1] of 0.835. For the same molecule, the “relative GAG core protein HA-SDC1 amount per cell number” value in experiment [2] is inactive: 1.15. For the same molecule, in experiment [3], the “relative mutant VPS33A R498W amount” value turned out to be 1.1.
On to `O=c1sn(-c2cccc3ccccc23)c(=O)n1Cc1ccccc1` [Tideglusib], for which, in experiment [1], the relative cell viability worked out at 1.25. Moreover, in experiment [2], the “relative GAG core protein HA-SDC1 amount per cell number” value is inactive: 1.26. The “relative mutant VPS33A R498W amount” value in experiment [3] was 1.32.
`CCCOc1ccc(C(=O)OCCN(CC)CC)cc1N` [Proparacaine HCl]: the relative cell viability in experiment [1] was 1.09. Moreover, the “relative GAG core protein HA-SDC1 amount per cell number” value in experiment [2] was inactive: 0.879. The “relative mutant VPS33A R498W amount” value in experiment [3] turned out to be 1.35.
Turning to `CS(=O)(=O)OCCCCOS(C)(=O)=O` [Busulfan], the relative cell viability in experiment [1] stood at 1.4. Further, in experiment [2], the “relative GAG core protein HA-SDC1 amount per cell number” value is inactive: 1.68. Moreover, in experiment [3], the “relative mutant VPS33A R498W amount” value was found to be 0.856.
In the case of `O=C(CCc1ccc(O)cc1)c1c(O)cc(O)cc1O[C@@H]1OC(CO)[C@@H](O)[C@@H](O)C1O` (stereo partly drawn) [Phloridzin], the relative cell viability in experiment [1] came to 1.02. Also, the “relative GAG core protein HA-SDC1 amount per cell number” value in experiment [2] was inactive: 0.937. Besides, in experiment [3], the “relative mutant VPS33A R498W amount” value was 1.34.
The molecule `OC[C@H]1OC(O)[C@H](O)[C@@H](O)[C@@H]1O` (stereo partly drawn) [Dextrose (D-glucose)] had a relative cell viability in experiment [1] of 1.34. In addition, the “relative GAG core protein HA-SDC1 amount per cell number” value in experiment [2] is inactive: 1. Besides, the “relative mutant VPS33A R498W amount” value in experiment [3] came to 0.885.
In experiment [1], `CCCCC/C=C\C/C=C\CCCCCCCC(=O)O` [Linoleic Acid] yielded a relative cell viability of 1.14. Besides, the “relative GAG core protein HA-SDC1 amount per cell number” value in experiment [2] was inactive: 0.832. Moreover, the “relative mutant VPS33A R498W amount” value in experiment [3] is 1.49.
As for `CC(=O)O[C@H]1Cc2ccccc2N(C(N)=O)c2ccccc21` [Eslicarbazepine acetate], the relative cell viability in experiment [1] amounted to 1.04. Besides, in experiment [2], the “relative GAG core protein HA-SDC1 amount per cell number” value was inactive: 0.792. The “relative mutant VPS33A R498W amount” value in experiment [3] came out at 1.16.
On to `CCOC(=O)[C@H]1O[C@@H]1C(=O)N[C@@H](CC(C)C)C(=O)NCCC(C)C`, for which the relative cell viability in experiment [1] turned out to be 1.12. The “relative GAG core protein HA-SDC1 amount per cell number” value in experiment [2] was inactive: 1.07. Moreover, the “relative mutant VPS33A R498W amount” value in experiment [3] was found to be 2.36.
`CN1CCC(=C2c3ccccc3CCc3sccc32)CC1` [Pizotifen] yielded a relative cell viability in experiment [1] of 1.29. Also, the “relative GAG core protein HA-SDC1 amount per cell number” value in experiment [2] is inactive: 0.914. Further, the “relative mutant VPS33A R498W amount” value in experiment [3] came out at 0.673.
`CCCCN1CCCC[C@H]1C(=O)Nc1c(C)cccc1C` [Levobupivacaine HCl]: in experiment [1], the relative cell viability came out at 0.956. In addition, in experiment [2], the “relative GAG core protein HA-SDC1 amount per cell number” value is inactive: 0.96. For the same molecule, in experiment [3], the “relative mutant VPS33A R498W amount” value was found to be 1.01.
In experiment [1], `CC1(C)CCC[C@](C)([C@H]2CC[C@]3(C)[C@@H]2[C@H](O)C[C@@H]2[C@@]4(C)CC[C@H](O)C(C)(C)[C@@H]4[C@H](O)C[C@]23C)O1` [Panaxtriol] returned a relative cell viability of 0.968. Also, the “relative GAG core protein HA-SDC1 amount per cell number” value in experiment [2] was inactive: 0.772. In addition, the “relative mutant VPS33A R498W amount” value in experiment [3] is 1.31.

Values taken from the supplement of paper PMC12355420.
